# Where a name gives a salt, the structure may show the parent alone. Some of the results follow. Rule as the data show it: active = -2 or less and inactive = the rest. Many values rest on one well or one pass, so single values are uncertain.
# Tested on: hPSC-derived cortical neurons (WA09)
# Assay: nuclei number (viability) z-score; higher = more surviving cells
# Details: 5 µM; treatment: days 7-14 after plating, readout day 21
# 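Also: nuclei counted from DAPI counterstain by automated high-content image analysis, four fields per well at ×20 in 384-well plates, with sequential b-score then z-score normalization.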
row,SMILES,nuclei number (z-score)
1,CC[C@@]1(O)C(=O)OCc2c1cc1n(c2=O)Cc2cc3c(CN(C)C)c(O)ccc3nc2-1 [Topotecan HCl],inactive: -0.447
2,CN(C)C(=O)c1cc2cnc(Nc3ccc(N4CCNCC4)cn3)nc2n1C1CCCC1,inactive: 1.03
3,CC(=O)O[C@]1(C(C)=O)CC[C@H]2[C@@H]3C=C(C)C4=CC(=O)CC[C@]4(C)[C@H]3CC[C@@]21C [Megestrol Acetate],inactive: 0.139
4,C=C1[C@H](CO)[C@@H](O)C[C@@H]1n1cnc2c(=O)[nH]c(N)nc21 [Entecavir Hydrate],inactive: 1.81
5,CN1CCN(c2ccc(Nc3cc(-c4cccc(-n5ccc6cc(C7CC7)cc(F)c6c5=O)c4CO)cn(C)c3=O)nc2)CC1,inactive: -1.25
6,COc1ccc2c(c1)c(CC(=O)OCC(=O)O)c(C)n2C(=O)c1ccc(Cl)cc1 [Acemetacin],inactive: 1.61
7,CC(=O)NC[C@H]1CN(c2ccc(N3CCOCC3)c(F)c2)C(=O)O1 [Linezolid],inactive: -0.00916
8,Cc1nccn1CC1CCc2c(c3ccccc3n2C)C1=O (stereo unspecified) [Ondansetron HCl],inactive: -1.75
9,Cn1sc(=O)n(Cc2ccccc2)c1=O,inactive: -0.245
10,COc1cc2c(cc1Cc1cccc(Cl)c1F)c(=O)c(C(=O)O)cn2[C@H](CO)C(C)C [Elvitegravir (GS-9137_ JTK-303)],inactive: -0.538
11,COc1ccc2cc3[n+](cc2c1OC)CCc1cc2c(cc1-3)OCO2 [Berberine HCl],active: -7.96
12,CC(C)CCCCC(=O)N[C@@H](CCN)C(=O)N[C@H](C(=O)N[C@@H](CCN)C(=O)N[C@H]1CCNC(=O)[C@H]([C@@H](C)O)NC(=O)[C@H](CCN)NC(=O)[C@H](CCN)NC(=O)[C@H](CC(C)C)NC(=O)[C@@H](Cc2ccccc2)NC(=O)[C@H](CCN)NC1=O)[C@@H](C)O [Polymyxin B sulphate],inactive: 0.49
13,CC(C)(C)OC(=O)Nc1ccc(-c2cc(C(=O)NCCCCCCC(=O)NO)no2)cc1,active: -2.82
14,Nc1ccccc1NC(=O)c1ccc(CNc2nccc(-c3cccnc3)n2)cc1 [Mocetinostat (MGCD0103)],active: -4.93
15,COc1cc(-c2cc(-c3ccc(N4CCNCC4)cc3)cnc2C)cc(OC)c1OC,inactive: -0.25
16,Cc1ccc(S(=O)(=O)/C=C/C#N)cc1,active: -5.83
17,CC1=C(C(=O)O)N2C(=O)[C@@H](NC(=O)[C@H](N)c3ccccc3)[C@H]2SC1 [Cephalexin],inactive: -1.53
18,Cc1cccn2c(=O)c(-c3nnn[nH]3)cnc12 [Pemirolast potassium],inactive: -0.0481
19,CC[C@H](C)C(=O)O[C@H]1C[C@H](O)C=C2C=C[C@H](C)[C@H](CC[C@@H](O)C[C@@H](O)CC(=O)O)[C@H]21 [Pravastatin sodium],inactive: -0.123
20,Oc1nc(-c2ccc(C(F)(F)F)cc2)nc2c1CSCC2,inactive: -0.383
21,Cc1nc2ccc(NC(=O)Nc3ccnc4cccnc34)cc2o1,inactive: 0.405
22,NC1=NCC2c3ccccc3Cc3ccccc3N12 (stereo unspecified) [Epinastine HCl],inactive: 0.991
23,NC(=O)N1c2ccccc2CC(=O)c2ccccc21 [Oxcarbazepine],inactive: 2.11
24,CN(C)c1ccc(-c2nc3ncc(Cl)c(N4CCN(CC(=O)Nc5nccs5)CC4)c3[nH]2)cc1,inactive: 0.15

row,SMILES,nuclei number (z-score)
1,CC(C)Cn1cnc2c(N)nc3ccccc3c21 [Imiquimod],inactive: 1.37
2,CN(C)c1cc(NC(=O)CNC(C)(C)C)c(O)c2c1C[C@H]1C[C@H]3[C@H](N(C)C)C(O)=C(C(N)=O)C(=O)[C@@]3(O)C(O)=C1C2=O [Tigecycline],inactive: 0.292
3,CCNc1nc(Nc2cc(F)c(C(=O)N3CCOCC3)cc2OC)ncc1C(F)(F)F,inactive: 0.509
4,COc1cc(NS(=O)(=O)c2ccc(N)cc2)nc(OC)n1 [Sulphadimethoxine],inactive: 0.959
5,CC1(C)O[C@@H]2[C@@H](CO[C@@]3(COS(N)(=O)=O)OC(C)(C)O[C@@H]23)O1 [Topiramate],inactive: 0.465
6,O=C1N=C(O)NC1(c1ccccc1)c1ccccc1 [Phenytoin sodium],inactive: 0.37
7,O=C1Nc2ccc(I)cc2/C1=C/c1cc(Br)c(O)c(Br)c1,inactive: 2.54
8,O=C(c1ccc(F)cc1)N1CCC[C@H](c2nc(-c3ccc(F)cc3)no2)C1,inactive: 0.543
9,Cc1ccc(Cl)cc1N(CC(=O)Nc1c(F)cccc1F)S(C)(=O)=O,inactive: 0.184
10,Cc1cccc(Nc2ccncc2S(=O)(=O)NC(=O)NC(C)C)c1 [Torsemide],inactive: 0.325
11,NS(=O)(=O)c1ccc(NC(=O)Nc2ccc(F)cc2)cc1,inactive: 4.18
12,S=c1[nH]cnc2nc[nH]c12 [Mercaptopurine (6-MP)],inactive: -1.79
13,O=C(NCCCNc1nc(Nc2cccc(NC(=O)N3CCCC3)c2)ncc1I)c1cccs1,inactive: 0.239
14,CN(Cc1ccc(C(C)(C)C)cc1)Cc1cccc2ccccc12 [Butenafine HCl],inactive: -0.0631
15,Cc1cccc(-c2[nH]ncc2-c2ccc3ncccc3n2)n1,inactive: -0.364
16,Cc1nc2c(O)cccc2c(=O)[nH]1,inactive: 3.55
17,O=C(NNc1ccccc1)c1ccncc1,inactive: 0.078
18,CC(C)n1cnc2c(NCCc3ccc(O)cc3)nc(-c3csc4ccccc34)nc21 [StemRegenin 1 (SR1)],inactive: -0.586
19,c1cc(CN2CCCNCCNCCCNCC2)ccc1CN1CCCNCCNCCCNCC1 [Plerixafor 8HCl (AMD3100 8HCl)],inactive: -0.629
20,O=c1[nH]c(=O)n([C@H]2C[C@H](O)[C@@H](CO)O2)cc1C(F)(F)F [Trifluridine],inactive: 0.557
21,Cn1cncc1[C@@](N)(c1ccc(Cl)cc1)c1ccc2c(c1)c(-c1cccc(Cl)c1)cc(=O)n2C [Tipifarnib],inactive: -0.766
22,Cc1nnc(SCC2=C(C(=O)O)N3C(=O)[C@@H](NC(=O)Cn4cnnn4)[C@H]3SC2)s1 [Cefazolin Sodium],inactive: 0.838
23,Cc1cc(C#N)cc(C)c1Oc1nc(Nc2ccc(C#N)cc2)nc(N)c1Br [Etravirine (TMC125)],inactive: 0.264
24,COc1ccc2c3c1O[C@H]1C[C@@H](O)C=C[C@@]31CCN(C)C2 [Galanthamine HBr],inactive: 1.41

row,SMILES,nuclei number (z-score)
1,Cc1cc(F)c(Nc2ncnc3cc(OCc4ccccc4)ccc23)cc1O,inactive: 2.09
2,COc1c(C)c2c(c(O)c1C/C=C(\C)CCC(=O)OCCN1CCOCC1)C(=O)OC2 [Mycophenolate Mofetil],inactive: 0.392
3,CN1C(C(=O)Nc2ccccn2)=C(O)c2ccccc2S1(=O)=O [Piroxicam],inactive: 0.475
4,COCCOC(=O)C1=C(C)NC(C)=C(C(=O)OC(C)C)C1c1cccc([N+](=O)[O-])c1 (stereo unspecified) [Nimodipine],inactive: -0.998
5,NCCS [Cysteamine HCl],inactive: 0.153
6,O=C(NCc1cccc(O)c1)Nc1nc(-c2ccncc2)cs1,inactive: 3.08
7,COC(=O)CCc1ccc(OCC(O)CNC(C)C)cc1 (stereo unspecified) [Esmolol HCl],active: -5.25
8,O=C(O)c1ccc(-n2nc(-c3ccccc3O)nc2-c2ccccc2O)cc1 [Deferasirox],inactive: 1.18
9,Oc1ccc(Cc2nc3c(Cc4ccccc4)nc(-c4ccc(O)cc4)cn3c2O)cc1 [Coelenterazine],inactive: 3.01
10,C[C@H]1COC2(CCN(c3nc(=O)c4cc(C(F)(F)F)cc([N+](=O)[O-])c4s3)CC2)O1 (racemic) [BTZ043 Racemate],inactive: -0.0424
11,CC1(C)[C@@H](O)CC[C@]2(C)[C@H]3C(=O)C=C4[C@@H]5C[C@@](C)(C(=O)O)CC[C@]5(C)CC[C@@]4(C)[C@]3(C)CC[C@@H]12 [Enoxolone],inactive: -0.536
12,CC1(C)CC(=O)c2c(C(F)(F)F)nn(-c3ccc(C(N)=O)c(N[C@H]4CC[C@H](OC(=O)CN)CC4)c3)c2C1,active: -8.18
13,O=C(CCCN1CCC(O)(c2ccc(Cl)cc2)CC1)c1ccc(F)cc1 [Haloperidol],inactive: -0.962
14,COc1cc2c(cc1OC)[C@@H]1Cc3ccc(OC)c(OC)c3CN1CC2 [Rotundine],inactive: 8.97
15,Cc1ccc(C)c(OCCCC(C)(C)C(=O)O)c1 [Gemfibrozil],inactive: 2.47
16,O=C(O)C[C@H](O)C[C@H](O)/C=C/c1c(C2CC2)nc2ccccc2c1-c1ccc(F)cc1 [Pitavastatin Calcium],active: -4.86
17,Cc1ccc(Sc2ccccc2N2CCNCC2)c(C)c1,inactive: -1.07
18,C[C@H](NC(=O)CCc1nc2ccccc2c(=O)[nH]1)c1ccccc1,inactive: 2.03
19,NCC(=O)CCC(=O)O [5-Aminolevulinic acid HCl],inactive: 0.504
20,NC(=O)c1ccc[n+]([C@@H]2O[C@H](COP(=O)([O-])OP(=O)(O)OC[C@H]3O[C@@H](n4cnc5c(N)ncnc54)[C@H](O)[C@@H]3O)[C@@H](O)[C@H]2O)c1,inactive: 0.165
21,CN1CCC(CNc2ccc3ncc(-c4cccc(OC(F)(F)F)c4)n3n2)CC1 [SGI-1776 free base],active: -7.71
22,COc1ccc(C[C@H](NC(=O)[C@H](C)NC(=O)CN2CCOCC2)C(=O)N[C@@H](Cc2ccccc2)C(=O)[C@@]2(C)CO2)cc1,active: -4.42
23,CC(C[N+](C)(C)C)OC(N)=O (stereo unspecified) [Bethanechol chloride],inactive: 2.21
